# Data from the supplement of paper PMC8728848.
# The list shows a part of the results.
# B1: Surfactant Protein D (Human); Neck + Carbohydrate Recognition Domain (NCRD) (Homo sapiens) (protein)
# chain: MLLFLLSALVLLTQPLGYLEAEMKTYSHRTMPSACTLVMCSSVESGLPGRDRDGREGPRGEKGDPGLPGAAGQAGMPGQAGPVGPKGDNGSVGEPGPKGDTGPSGPPGPPGVPGPAGREGALGKQGNIGPQGKPGPKGEAGPKGEVGAPGMQGSAGARGLAGPKGERGVPGERGVPGNTGAAGSAGAMGPQGSPGARGPPGLKGDKGIPGDKGAKGESGLPDVASLRQQVEALQGQVQHLQAAFSQYKKVELFPNGQSVGEKIFKTAQFVKPFTEAQLLCTQAGGQLASPRSAAENAALQQLVVAKNEAAFLSMTDSKTEGKFTYPTGESLVYSNWAPGEPNDDGGSEDCVEIFTNGKWNDRACGEKRLVVCEA
# Assays:
# Test in all cases: glycan array binding signal (z-score within array); higher = stronger binding
# Conditions in all cases: glycan notation: IUPAC condensed, linker removed; mutation: F355A
# Fuc(a1-2)Gal = molecular target: Fuc(a1-2)Gal
# Procedure, shortened: (§1)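 Arrays were curated from the Consortium for Functional Glycomics database, 3228 in total, and kept only where the protein sequence was available. Binding is expressed as a within-array Z-score. This score was averaged across arrays of the same protein sequence at different concentrations or buffers and across linkers, and negative values can be read as non-binding.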
# Fuc(a1-2)Gal(b1-3)GalNAc = molecular target: Fuc(a1-2)Gal(b1-3)GalNAc
# Procedure, shortened: as §1
# [1] = molecular target: Fuc(a1-2)Gal(b1-3)GalNAc(b1-3)Gal
# Procedure, shortened: as §1
# [2] = molecular target: Fuc(a1-2)Gal(b1-3)GalNAc(b1-3)Gal(a1-4)Gal(b1-4)Glc
# Procedure, shortened: as §1
# [3] = molecular target: Fuc(a1-2)Gal(b1-3)GalNAc(b1-4)[Neu5Ac(a2-3)]Gal(b1-4)Glc
# Procedure, shortened: as §1
# Fuc(a1-2)Gal(b1-3)GlcNAc = molecular target: Fuc(a1-2)Gal(b1-3)GlcNAc
# Procedure, shortened: as §1
# [4] = molecular target: Fuc(a1-2)Gal(b1-3)GlcNAc(b1-3)Gal(b1-4)Glc
# Procedure, shortened: as §1
# [5] = molecular target: Fuc(a1-2)Gal(b1-3)[Fuc(a1-4)]GlcNAc
# Procedure, shortened: as §1
# Fuc(a1-2)Gal(b1-4)Glc = molecular target: Fuc(a1-2)Gal(b1-4)Glc
# Procedure, shortened: as §1
# Fuc(a1-2)Gal(b1-4)Glc6S = molecular target: Fuc(a1-2)Gal(b1-4)Glc6S
# Procedure, shortened: as §1
# Fuc(a1-2)Gal(b1-4)GlcNAc = molecular target: Fuc(a1-2)Gal(b1-4)GlcNAc
# Procedure, shortened: as §1
# [6] = molecular target: Fuc(a1-2)Gal(b1-4)GlcNAc(b1-3)Gal(b1-4)GlcNAc
# Procedure, shortened: as §1
# [7] = molecular target: Fuc(a1-2)Gal(b1-4)GlcNAc(b1-3)Gal(b1-4)GlcNAc(b1-3)Gal(b1-4)GlcNAc
# Procedure, shortened: as §1
# [8] = molecular target: Fuc(a1-2)Gal(b1-4)GlcNAc6S
# Procedure, shortened: as §1
# [9] = molecular target: Fuc(a1-2)Gal(b1-4)[Fuc(a1-3)]GlcNAc
# Procedure, shortened: as §1
# [10] = molecular target: Fuc(a1-2)Gal(b1-4)[Fuc(a1-3)]GlcNAc(b1-3)Gal(b1-4)[Fuc(a1-3)]GlcNAc
# Procedure, shortened: as §1
# [11] = molecular target: Fuc(a1-2)Gal(b1-4)[Fuc(a1-3)]GlcNAc(b1-3)Gal(b1-4)[Fuc(a1-3)]GlcNAc(b1-3)Gal(b1-4)[Fuc(a1-3)]GlcNAc
# Procedure, shortened: as §1
# Fuc(a1-2)Gal6S(b1-4)Glc = molecular target: Fuc(a1-2)Gal6S(b1-4)Glc
# Procedure, shortened: as §1
# [12] = molecular target: Fuc(a1-2)Gal6S(b1-4)Glc6S
# Procedure, shortened: as §1
# [13] = molecular target: Fuc(a1-2)Gal6S(b1-4)GlcNAc
# Procedure, shortened: as §1
# Fuc(a1-2)[Gal(a1-3)]Gal = molecular target: Fuc(a1-2)[Gal(a1-3)]Gal
# Procedure, shortened: as §1
# [14] = molecular target: Fuc(a1-2)[Gal(a1-3)]Gal(b1-3)GlcNAc
# Procedure, shortened: as §1
# [15] = molecular target: Fuc(a1-2)[Gal(a1-3)]Gal(b1-4)Glc
# Procedure, shortened: as §1
# [16] = molecular target: Fuc(a1-2)[Gal(a1-3)]Gal(b1-4)GlcNAc
# Procedure, shortened: as §1
# [17] = molecular target: Fuc(a1-2)[Gal(a1-3)]Gal(b1-4)[Fuc(a1-3)]GlcNAc
# Procedure, shortened: as §1
# [18] = molecular target: Fuc(a1-2)[Gal(a1-4)]Gal(b1-4)GlcNAc
# Procedure, shortened: as §1
# [19] = molecular target: Fuc(a1-2)[GalNAc(a1-3)]Gal
# Procedure, shortened: as §1
# [20] = molecular target: Fuc(a1-2)[GalNAc(a1-3)]Gal(b1-3)GlcNAc
# Procedure, shortened: as §1
# [21] = molecular target: Fuc(a1-2)[GalNAc(a1-3)]Gal(b1-4)Glc
# Procedure, shortened: as §1
# [22] = molecular target: Fuc(a1-2)[GalNAc(a1-3)]Gal(b1-4)GlcNAc
# Procedure, shortened: as §1
binder,measurement,setting,value
B1,glycan array binding signal (z-score),Fuc(a1-2)Gal,-0.15
same,glycan array binding signal (z-score),Fuc(a1-2)Gal(b1-3)GalNAc,-0.158
same,glycan array binding signal (z-score),[1],-0.129
same,glycan array binding signal (z-score),[2],-0.147
same,glycan array binding signal (z-score),[3],-0.131
same,glycan array binding signal (z-score),Fuc(a1-2)Gal(b1-3)GlcNAc,-0.126
same,glycan array binding signal (z-score),[4],-0.112
same,glycan array binding signal (z-score),[5],-0.103
same,glycan array binding signal (z-score),Fuc(a1-2)Gal(b1-4)Glc,-0.135
same,glycan array binding signal (z-score),Fuc(a1-2)Gal(b1-4)Glc6S,-0.123
same,glycan array binding signal (z-score),Fuc(a1-2)Gal(b1-4)GlcNAc,-0.156
same,glycan array binding signal (z-score),[6],-0.098
same,glycan array binding signal (z-score),[7],-0.155
same,glycan array binding signal (z-score),[8],-0.08
same,glycan array binding signal (z-score),[9],-0.133
same,glycan array binding signal (z-score),[10],-0.134
same,glycan array binding signal (z-score),[11],-0.141
same,glycan array binding signal (z-score),Fuc(a1-2)Gal6S(b1-4)Glc,-0.102
same,glycan array binding signal (z-score),[12],-0.071
same,glycan array binding signal (z-score),[13],-0.146
same,glycan array binding signal (z-score),Fuc(a1-2)[Gal(a1-3)]Gal,-0.109
same,glycan array binding signal (z-score),[14],-0.079
same,glycan array binding signal (z-score),[15],-0.152
same,glycan array binding signal (z-score),[16],0.036
same,glycan array binding signal (z-score),[17],-0.152
same,glycan array binding signal (z-score),[18],-0.125
same,glycan array binding signal (z-score),[19],-0.083
same,glycan array binding signal (z-score),[20],-0.149
same,glycan array binding signal (z-score),[21],-0.086
same,glycan array binding signal (z-score),[22],-0.152
